These results are taken from the supplement of paper PMC12217912.

Sequences and labels used below:
B1: TEV protease; numbered along this chain (parent)
chain: MGESLFKGPRDYNPISSSICHLTNESDGHTTSLYGIGFGPFIITNKHLFRRNNGTLVVQSLHGVFKVKDTTTLQQHLVDGRDMIIIRMPKDFPPFPQKLKFREPQREERICLVTTNFQTKSMSSMVSDTSCTFPSGDGIFWKHWIQTKDGQCGSPLVSTRDGFIVGIHSASNFTNTNNYFTSVPKNFMELLTNQEAQQWVSGWRLNADSVLWGGHKVFMVKPEEPFQPVKEATQL

The variants in this assay derive from B1. As to the kind of experiment: raw area under fraction-flipped curve 0-4 h after induction (AUC4h, not background-subtracted), DNA-recorder readout of cleavage of the substrate (dimensionless); higher = more cleavage of the substrate by the protease variant. Particulars: temperature: 34 °C; time window: 0-4 h after rhamnose induction. As to the method: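 In vivo DNA recorder in E. coli TOP10(DE3) ΔrhaA at 34 °C. Each TEVp single-site mutant (parent TEVp 0) is paired with a single-site variant of the 7-mer TEVs (canonical ENLYFQ|S). The substrate sits between flexible linkers in a Bxb1-sfGFP-TEVs-SsrA fusion, so cleavage stabilises Bxb1 and speeds flipping of a recombination array, read by NGS. The value is the raw area under the fraction-flipped curve over 0-4 h after rhamnose induction (AUC4h), with ≥20 reads per time point. It is not background-subtracted; inactive controls average about 0.047.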

The list shows a part of the results. Sequences were assembled here from the parent chain. Values near 0.05 are background.
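Also: Bxb1 expression induced with 0.2% (w/v) L-rhamnose at OD600 near 0.5, cultures sampled hourly, flipped fraction per protease–substrate barcode pair counted by paired-end Illumina sequencing.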

MGESLFKGPNDYNPISSSICHLTNESDGHTTSLYGIGFGPFIITNKHLFRRNNGTLVVQSLHGVFKVKDTTTLQQHLVDGRDMIIIRMPKDFPPFPQKLKFREPQREERICLVTTNFQTKSMSSMVSDTSCTFPSGDGIFWKHWIQTKDGQCGSPLVSTRDGFIVGIHSASNFTNTNNYFTSVPKNFMELLTNQEAQQWVSGWRLNADSVLWGGHKVFMVKPEEPFQPVKEATQL [R10N]: the “area with substrate EELYFQS” value was determined as 0.117, the “area with substrate EFLYFQS” value was determined as 0.0873, the “area with substrate EGLYFQS” value is 0.0996 and the “area with substrate EILYFQS” value was determined as 0.0918. The “area with substrate EKLYFQS” value is 0.127, the “area with substrate ELLYFQS” value was found to be 0.103, the “area with substrate EPLYFQS” value is 0.0954 and the “area with substrate EQLYFQS” value came to 0.109. The “area with substrate ESLYFQS” value was 0.0841, the “area with substrate ETLYFQS” value was determined as 0.101, the “area with substrate EVLYFQS” value stood at 0.102 and the “area with substrate EWLYFQS” value turned out to be 0.076.
For MGESLFKGPRDYNPISSSICHLTNESDGHTTSLYGIGFGPFIITNKHLFRRNNGTLVVQSLHGVFKVKDTTTLQQHLVDGRDMIIIRMPKDFPPFPQKLKFREPQREERICLVTTNFQTKSMSSMVSDTSCTFPSGDGIFWKHWIQTFDGQCGSPLVSTRDGFIVGIHSASNFTNTNNYFTSVPKNFMELLTNQEAQQWVSGWRLNADSVLWGGHKVFMVKPEEPFQPVKEATQL [K148F], the “area with substrate EDLYFQS” value stood at 0.109, the “area with substrate EKLYFQS” value came out at 0.101, the “area with substrate EPLYFQS” value was 0.104 and the “area with substrate ERLYFQS” value stood at 0.0615. Further, the “area with substrate EVLYFQS” value turned out to be 0.103 and the “area with substrate EWLYFQS” value was 0.105.
Consider MGESLFKGPRDYNPISSSICHLTNESDGHTTSLYGIGFGPFIITNKHLFRRNNGTLVVQSLHGVFKVKDTTTLQQHLVDGRDMIIIRMPKDFPPFPQKLKFREPQREERICLVTTNFQTKSMSSMVSDTSCTFPSGDGIFWKHWIQTKDGQCGSPLVSTRDGFIVGIHSASNFTNTNNYFTSVPKNFMELLTNQEAQQWVSGWRLNADSVLWGGHKVFMVKYEEPFQPVKEATQL [P222Y], for which the “area with substrate EDLYFQS” value amounted to 0.0929, the “area with substrate EELYFQS” value was 0.102, the “area with substrate EGLYFQS” value was determined as 0.0716 and the “area with substrate EILYFQS” value came to 0.0858. Further, the “area with substrate EKLYFQS” value came to 0.107, the “area with substrate EMLYFQS” value was 0.104, the “area with substrate EPLYFQS” value was 0.0907 and the “area with substrate EQLYFQS” value came to 0.0965. Further, the “area with substrate ERLYFQS” value was determined as 0.0691, the “area with substrate EWLYFQS” value turned out to be 0.082 and the “area with substrate EYLYFQS” value turned out to be 0.0888.
Take MGESLFKGPRDYNPISSSICHLTNESDGHTTSLYGIGFGPFIITNKHLFRRNNGTLVVQDLHGVFKVKDTTTLQQHLVDGRDMIIIRMPKDFPPFPQKLKFREPQREERICLVTTNFQTKSMSSMVSDTSCTFPSGDGIFWKHWIQTKDGQCGSPLVSTRDGFIVGIHSASNFTNTNNYFTSVPKNFMELLTNQEAQQWVSGWRLNADSVLWGGHKVFMVKPEEPFQPVKEATQL [S60D]: the “area with substrate EDLYFQS” value is 0.0758, the “area with substrate EPLYFQS” value was 0.104, the “area with substrate ERLYFQS” value was determined as 0.107 and the “area with substrate ESLYFQS” value came out at 0.0897. The “area with substrate ETLYFQS” value is 0.0727, the “area with substrate EVLYFQS” value came out at 0.0826 and the “area with substrate EYLYFQS” value was found to be 0.0866.
For MGESLFKGPRDYNPISSSICHLTNESDGHTTSLYGIGFGPFIITNKHLFRRNNGTLVVQSLHGVFKVKDTTTLQQHLVDGRDMIIIRMPKDFPPFPQKLKFREPQREERICLVTTNFQTKSMSSMVSDTSCTFPSGDGIFWKHWIQTKDGQCGSPLVSTRDGFIVGIHSASNFTNTNNYFTSVPKEFMELLTNQEAQQWVSGWRLNADSVLWGGHKVFMVKPEEPFQPVKEATQL [N186E], the “area with substrate EDLYFQS” value came to 0.122, the “area with substrate EILYFQS” value came to 0.106, the “area with substrate EMLYFQS” value was determined as 0.134 and the “area with substrate EQLYFQS” value turned out to be 0.107. Also, the “area with substrate ERLYFQS” value came out at 0.0852, the “area with substrate ESLYFQS” value came out at 0.111, the “area with substrate EVLYFQS” value turned out to be 0.105 and the “area with substrate EYLYFQS” value stood at 0.136.
For the variant MGESLFKGPRDYNPISSSECHLTNESDGHTTSLYGIGFGPFIITNKHLFRRNNGTLVVQSLHGVFKVKDTTTLQQHLVDGRDMIIIRMPKDFPPFPQKLKFREPQREERICLVTTNFQTKSMSSMVSDTSCTFPSGDGIFWKHWIQTKDGQCGSPLVSTRDGFIVGIHSASNFTNTNNYFTSVPKNFMELLTNQEAQQWVSGWRLNADSVLWGGHKVFMVKPEEPFQPVKEATQL [I19E], the “area with substrate EELYFQS” value came to 0.059, the “area with substrate EFLYFQS” value came out at 0.0591, the “area with substrate EHLYFQS” value is 0.049 and the “area with substrate EILYFQS” value was 0.0377. Further, the “area with substrate EKLYFQS” value was 0.0553, the “area with substrate EMLYFQS” value stood at 0.055, the “area with substrate EQLYFQS” value is 0.0491 and the “area with substrate ERLYFQS” value came out at 0.0531. Besides, the “area with substrate ESLYFQS” value is 0.0585, the “area with substrate ETLYFQS” value stood at 0.0536, the “area with substrate EVLYFQS” value turned out to be 0.0495 and the “area with substrate EYLYFQS” value stood at 0.0762.
As to MGESLFKGPRDYNPISSSICHLTNESDGHTTSLYGIGFGPFIITNKHLFRRNNGTLVVQSLHGVFKVKDTTTLQQHLVDGRDMIIIRMPLDFPPFPQKLKFREPQREERICLVTTNFQTKSMSSMVSDTSCTFPSGDGIFWKHWIQTKDGQCGSPLVSTRDGFIVGIHSASNFTNTNNYFTSVPKNFMELLTNQEAQQWVSGWRLNADSVLWGGHKVFMVKPEEPFQPVKEATQL [K90L], the “area with substrate EDLYFQS” value is 0.113, the “area with substrate EELYFQS” value was 0.0948, the “area with substrate EFLYFQS” value was found to be 0.103 and the “area with substrate EGLYFQS” value was determined as 0.132. The “area with substrate EILYFQS” value turned out to be 0.0967, the “area with substrate EKLYFQS” value was found to be 0.103, the “area with substrate ELLYFQS” value amounted to 0.0995 and the “area with substrate EMLYFQS” value came to 0.111. In addition, the “area with substrate EQLYFQS” value was 0.116, the “area with substrate ERLYFQS” value was 0.0967, the “area with substrate ESLYFQS” value was found to be 0.111 and the “area with substrate ETLYFQS” value turned out to be 0.165. The “area with substrate EVLYFQS” value came out at 0.0886 and the “area with substrate EWLYFQS” value came to 0.0851.
MGESLFKGPRDENPISSSICHLTNESDGHTTSLYGIGFGPFIITNKHLFRRNNGTLVVQSLHGVFKVKDTTTLQQHLVDGRDMIIIRMPKDFPPFPQKLKFREPQREERICLVTTNFQTKSMSSMVSDTSCTFPSGDGIFWKHWIQTKDGQCGSPLVSTRDGFIVGIHSASNFTNTNNYFTSVPKNFMELLTNQEAQQWVSGWRLNADSVLWGGHKVFMVKPEEPFQPVKEATQL [Y12E]: the “area with substrate EELYFQS” value turned out to be 0.111, the “area with substrate EGLYFQS” value turned out to be 0.13, the “area with substrate EHLYFQS” value amounted to 0.105 and the “area with substrate EILYFQS” value turned out to be 0.112. The “area with substrate EKLYFQS” value amounted to 0.07, the “area with substrate EPLYFQS” value came out at 0.104, the “area with substrate EQLYFQS” value came to 0.116 and the “area with substrate ERLYFQS” value worked out at 0.0856. Further, the “area with substrate ESLYFQS” value stood at 0.1, the “area with substrate ETLYFQS” value came out at 0.105, the “area with substrate EVLYFQS” value is 0.0928 and the “area with substrate EWLYFQS” value was 0.0932. In addition, the “area with substrate EYLYFQS” value stood at 0.123.
MGESLFKGPRDYNPISSSICHLTNESDGHTTSLYGIGFGPFIITNKHLFRRNNGTLVVQSLHGVFKVKDTTTLQQHLVDGRDMIIIRMPKDFPPFPQKLKFREPQREERICLVTTNFQTKSMSSMVSDTSCTFPSGDGIAWKHWIQTKDGQCGSPLVSTRDGFIVGIHSASNFTNTNNYFTSVPKNFMELLTNQEAQQWVSGWRLNADSVLWGGHKVFMVKPEEPFQPVKEATQL [F140A]: the “area with substrate EDLYFQS” value stood at 0.055, the “area with substrate EELYFQS” value was 0.0607, the “area with substrate EHLYFQS” value worked out at 0.0548 and the “area with substrate EKLYFQS” value came to 0.0668. The “area with substrate EPLYFQS” value amounted to 0.0642 and the “area with substrate ESLYFQS” value worked out at 0.0627.
As for MGESLFKGPRDYNPISSSIGHLTNESDGHTTSLYGIGFGPFIITNKHLFRRNNGTLVVQSLHGVFKVKDTTTLQQHLVDGRDMIIIRMPKDFPPFPQKLKFREPQREERICLVTTNFQTKSMSSMVSDTSCTFPSGDGIFWKHWIQTKDGQCGSPLVSTRDGFIVGIHSASNFTNTNNYFTSVPKNFMELLTNQEAQQWVSGWRLNADSVLWGGHKVFMVKPEEPFQPVKEATQL [C20G], the “area with substrate EELYFQS” value came out at 0.0875, the “area with substrate EGLYFQS” value stood at 0.0582, the “area with substrate EWLYFQS” value was 0.0675 and the “area with substrate EYLYFQS” value turned out to be 0.0476.
